# Test results as given in paper PMC4336329 (PLoS ONE, 2015).
# Hit rate of the full screen: of about 310,000 compounds, about 14,000 (4.5%) showed an effect of 50% or more. The effect is printed as a negative number. The list shows a part of the results.
# Molecular target: human ether-à-go-go-related gene (hERG) potassium channel (human, UniProt Q12809)
# Experiment: primary screen, population patch clamp on CHO cells stably expressing hERG
# 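Further: peak tail current of the secondary pulse compared with the same well before compound.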
# human ether-à-go-go-related gene (hERG) potassium channel, sequence (Q12809 whole entry, looked up): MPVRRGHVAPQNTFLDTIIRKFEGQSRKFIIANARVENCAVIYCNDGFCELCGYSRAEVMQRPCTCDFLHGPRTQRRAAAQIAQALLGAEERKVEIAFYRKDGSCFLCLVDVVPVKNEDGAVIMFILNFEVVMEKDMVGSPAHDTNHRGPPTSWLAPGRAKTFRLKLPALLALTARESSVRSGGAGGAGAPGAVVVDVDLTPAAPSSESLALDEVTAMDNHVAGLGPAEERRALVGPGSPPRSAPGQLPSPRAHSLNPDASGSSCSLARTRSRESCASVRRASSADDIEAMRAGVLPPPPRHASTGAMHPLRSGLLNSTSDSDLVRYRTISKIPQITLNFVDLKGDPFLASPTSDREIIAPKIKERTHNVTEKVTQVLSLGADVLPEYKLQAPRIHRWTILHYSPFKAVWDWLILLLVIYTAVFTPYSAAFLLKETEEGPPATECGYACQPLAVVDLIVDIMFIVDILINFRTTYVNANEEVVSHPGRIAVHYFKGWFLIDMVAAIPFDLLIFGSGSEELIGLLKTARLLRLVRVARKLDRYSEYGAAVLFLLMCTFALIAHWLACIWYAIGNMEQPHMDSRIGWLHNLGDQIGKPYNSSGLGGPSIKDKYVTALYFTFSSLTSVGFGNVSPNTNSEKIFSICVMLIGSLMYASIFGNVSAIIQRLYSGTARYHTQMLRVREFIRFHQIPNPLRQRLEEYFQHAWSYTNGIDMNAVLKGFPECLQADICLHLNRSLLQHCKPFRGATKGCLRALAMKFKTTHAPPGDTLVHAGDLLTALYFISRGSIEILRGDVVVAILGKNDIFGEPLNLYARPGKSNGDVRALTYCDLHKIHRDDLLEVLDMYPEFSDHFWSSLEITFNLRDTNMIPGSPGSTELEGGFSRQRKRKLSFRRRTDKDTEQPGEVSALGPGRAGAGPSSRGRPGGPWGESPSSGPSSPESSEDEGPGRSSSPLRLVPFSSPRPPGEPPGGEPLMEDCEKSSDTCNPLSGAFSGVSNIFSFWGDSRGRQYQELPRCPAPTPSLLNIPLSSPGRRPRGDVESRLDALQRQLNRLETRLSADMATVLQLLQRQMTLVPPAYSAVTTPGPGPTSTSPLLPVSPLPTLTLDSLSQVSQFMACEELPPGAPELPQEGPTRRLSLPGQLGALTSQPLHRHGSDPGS
row,SMILES,"hERG current change (%, negative = inhibition) at 10uM [%]"
1,CCOc1cc(C=O)cc(N=Nc2cccc([N+](=O)[O-])c2)c1O,9.31
2,Cl.O=C(CN1CCN(Cc2ccccc2)CC1)N1CCCCCC1,4.77
3,CCc1ccc(CN(C)C(=O)CCc2nnc(-c3ccc(-c4ccccc4)cc3)o2)nc1,-65.1
4,O=C(COC(=O)C1CCN(S(=O)(=O)c2ccccc2)CC1)NC(=O)c1ccc(OC(F)F)cc1,5.4
5,COc1ccc(/C=C/C(=O)Nc2ccc3c(c2)OCCO3)cc1OC,1.16
6,COc1ccc(CCNC(=O)c2nnc(CS(=O)(=O)c3ccccc3)o2)cc1OC,-6.44
7,Cc1cc(Br)cc2c1NC(=O)C2(c1c(C)n(C)n(-c2ccccc2)c1=O)c1c(C)n(C)n(-c2ccccc2)c1=O,21.6
8,CCN(CC)C(CNC(=O)CSc1nnnn1-c1cccc(F)c1)c1ccco1 (centres unmarked),-16.4
9,Clc1ccc(-c2nnc(NC3=NCCCCC3)o2)cc1,2.79
10,O=C(CSc1ncccn1)NCc1ccccc1,17
11,COc1cnc(SCc2c(Cl)cccc2Cl)nc1Cl,-1.4
12,CCOc1cc(CNc2ccc(N3CCCCC3)cc2)cc(Br)c1OCC(=O)NC(C)(C)C,14.5
13,CC1(C)C(=O)C2(CCCCC2)C(=O)OC1c1ccc(O)cc1 (centres unmarked),2.38
14,CN(C)c1ccc(C2NCC(CCl)O2)cc1 (centres unmarked),5.99
15,CCOC(=O)C1=C(C)NC2=C(C(=O)C(C(=O)OC)C(C)C2)C1c1ccc(OC)c(O)c1 (centres unmarked),6.99
16,Cc1cccc(-n2c(-c3ccc([N+](=O)[O-])cc3)nc3ccccc3c2=O)c1,5.1
17,COc1ccccc1NC(=O)Nc1ccncc1,30.9
18,Cc1cc(C)c(S(=O)(=O)NCCc2ccncc2)c(C)c1,5.85
19,CCOc1ccccc1NS(=O)(=O)c1ccc2c(c1)NC(=O)CCS2,-46
20,COc1ccc2c(c1)cc(C(=O)O)n2C,-6.02
21,CN(C)C1(CNC(=O)CC(NC(=O)c2ccccc2Cl)c2ccccc2)CCCCC1 (centres unmarked),-31.3
22,O=C(Nc1cccc(NC(=O)C2C3CC4OC(=O)C2C4C3)c1)c1ccccc1 (centres unmarked),14.9

row,SMILES,"hERG current change (%, negative = inhibition) at 10uM [%]"
1,CC(C)c1csc(CN2CCCC(CCC(=O)NCc3ccccc3F)C2)n1 (centres unmarked),-34.3
2,C/C(=N\NC(=O)c1c(Cl)c(C)nn1C)c1cccc(NC(=O)c2cccc(F)c2)c1,16.3
3,Cc1cc(C)nc(-n2ncc3c2CC(c2ccccc2)CC3=O)n1 (centres unmarked),-5.73
4,Cc1[nH][nH]c(=O)c1/C=N/N1CCOCC1,14.8
5,O=C(CCCN1C(=O)/C(=C/c2ccco2)SC1=S)Nc1ccccc1C(=O)O,5.4
6,Cc1noc(NS(=O)(=O)c2ccc(N/C=C/C(=O)c3ccncc3)cc2)c1C,-13
7,O=C(c1cnccn1)N(c1ccccc1)C1(C(=O)NC2CCCC2)CCCCC1,-9.09
8,CCOc1ccc(S(=O)(=O)N2CCC(C(=O)NCc3ccncc3)CC2)cc1Cl,-28.3
9,C=CCn1c(SCC(=O)Nc2ccc(N3CCOCC3)cc2)nc2ccccc2c1=O,3.75
10,COc1ccc(OC)c(/C=N/NC(=O)CSc2nnc(C)n2-c2ccccc2)c1,-12.4
11,O=C(O)CSc1cnc2ccccc2n1,-1.24
12,Cn1c(C(=O)N2CCN(c3cccc(C(F)(F)F)c3)CC2)cc2sccc21,-7.97
13,O=C1OC2CC3CC1CC(O)(C3)C2 (centres unmarked),-2.69
14,O=C(COC(=O)c1cnccn1)c1ccc([N+](=O)[O-])cc1,2.35
15,O=C(Nc1ccc(S(=O)(=O)Nc2nccs2)cc1)c1cc(-c2ccccc2)nc2ccccc12,6.03
16,COc1cccc(C2N(c3ccc(Cl)c(Cl)c3)C(=O)C3CCCN32)c1OC (centres unmarked),-14
17,Cc1ccc(C(=O)N(NC2=NS(=O)(=O)c3ccccc32)S(=O)(=O)c2ccc(C)cc2)cc1,18.6
18,O=C(c1noc2c1CCCC2)N1CCCCC1,-0.65
19,Cc1ccc(N(Cc2cc3ccc(C)cc3[nH]c2=O)S(=O)(=O)c2ccccc2)c(C)c1,28.2
20,Cc1nc2sc(C(c3ccco3)N3CCC(C)CC3)c(O)n2n1 (centres unmarked),-3.32
21,O=C(Nc1cccc(NC(=O)c2ccc(Br)o2)n1)c1ccc(Br)o1,-3.36
22,Cc1ccc(Sc2ncnc3onc(C)c23)cc1,4.79
